Here are results for 8 molecules from PMC4060006, “SM proteins Sly1 and Vps33 co-assemble with Sec17 and SNARE complexes to oppose SNARE disassembly by Sec18” (eLife, 2014).

Protein sequences, listed by entry. Tags and fused reporters are not part of them. Lines headed by an entry give the natural chain unless they say otherwise; changes in a name come on top. Residues count along the entry.
UniProt Q01590, residues 170-319: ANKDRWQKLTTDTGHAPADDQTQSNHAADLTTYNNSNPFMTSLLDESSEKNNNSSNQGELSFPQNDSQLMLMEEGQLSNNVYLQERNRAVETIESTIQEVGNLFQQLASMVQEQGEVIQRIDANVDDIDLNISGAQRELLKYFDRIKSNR
UniProt Q04338, residues 1-194: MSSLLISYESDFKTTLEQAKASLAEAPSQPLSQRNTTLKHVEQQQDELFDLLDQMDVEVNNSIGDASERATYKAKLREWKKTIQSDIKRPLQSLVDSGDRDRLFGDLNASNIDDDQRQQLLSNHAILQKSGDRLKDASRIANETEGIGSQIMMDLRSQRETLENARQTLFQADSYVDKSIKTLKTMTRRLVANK
UniProt P25385: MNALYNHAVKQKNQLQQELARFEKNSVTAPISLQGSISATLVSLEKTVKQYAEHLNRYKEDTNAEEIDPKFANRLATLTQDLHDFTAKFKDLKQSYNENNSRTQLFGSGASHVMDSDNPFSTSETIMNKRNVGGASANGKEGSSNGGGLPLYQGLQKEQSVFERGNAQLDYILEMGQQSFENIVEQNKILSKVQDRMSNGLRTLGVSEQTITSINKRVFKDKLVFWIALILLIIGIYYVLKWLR
UniProt P22214, residues 1-188: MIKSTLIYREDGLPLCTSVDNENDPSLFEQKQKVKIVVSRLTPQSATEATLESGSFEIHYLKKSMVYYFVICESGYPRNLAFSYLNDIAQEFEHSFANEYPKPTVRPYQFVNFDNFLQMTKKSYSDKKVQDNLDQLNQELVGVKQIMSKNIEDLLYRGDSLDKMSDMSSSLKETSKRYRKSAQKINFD
UniProt P20795: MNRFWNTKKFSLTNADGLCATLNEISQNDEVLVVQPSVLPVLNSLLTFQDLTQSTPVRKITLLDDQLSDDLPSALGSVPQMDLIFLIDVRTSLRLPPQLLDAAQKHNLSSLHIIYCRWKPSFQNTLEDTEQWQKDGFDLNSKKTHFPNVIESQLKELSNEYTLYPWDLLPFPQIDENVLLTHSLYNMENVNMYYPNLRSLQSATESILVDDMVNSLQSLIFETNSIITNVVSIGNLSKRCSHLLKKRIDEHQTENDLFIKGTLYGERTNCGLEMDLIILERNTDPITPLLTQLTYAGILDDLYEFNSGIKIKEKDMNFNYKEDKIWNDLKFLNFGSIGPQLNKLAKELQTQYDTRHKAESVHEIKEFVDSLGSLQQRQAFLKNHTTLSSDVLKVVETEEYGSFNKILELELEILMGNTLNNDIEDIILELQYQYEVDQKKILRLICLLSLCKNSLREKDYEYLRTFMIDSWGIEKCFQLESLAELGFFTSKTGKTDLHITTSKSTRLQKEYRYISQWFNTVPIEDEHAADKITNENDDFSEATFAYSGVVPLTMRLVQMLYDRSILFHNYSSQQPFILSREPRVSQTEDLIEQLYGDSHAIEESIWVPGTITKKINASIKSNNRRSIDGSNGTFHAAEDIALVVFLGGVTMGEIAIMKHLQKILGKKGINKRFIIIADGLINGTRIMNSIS

Test [1] addresses GST-Sed5 SNARE domain (aa170-319) (S. cerevisiae) (UniProt Q01590). Description: condition: only at the low concentrations of free SNAREs liberated by disassembly, 30 min; pull-down; re-assembly without added SNAREs: SNARE complexes (500 nM) disassembled 30 min at 30°C by Sec17, Sec18 and ATP, quenched with 10 mM EDTA, further 30 min at 30°C, with or without SM; both purified.
The target of test [2] is T1, Sec17–vacuole SNARE complex (Sec17 bound to the vacuole SNARE complex on Vam3-GST) (S. cerevisiae) (UniProt Q12241+Q04338+P32912+Q12255+P32602). Description: pull-down; SNARE complex (500 nM) immobilised through its GST-tagged Qa-SNARE; Sec17 (20 µM), SM (Vps33 2.5 µM or Sly1 10 µM) or both, 1 hr at 30°C in SM Assay Buffer (some with 1 mM ATP, 2 mM MgCl2); washed three times, glutathione elution, SDS-PAGE, Coomassie; both purified.

The target of test [3] is T1, Sec17–vacuole SNARE complex (Sec17 bound to the vacuole SNARE complex on Vam3-GST) (S. cerevisiae). As to the kind of experiment: pull-down; Sec17 pre-bound to immobilised SNARE complex 60 min at 30°C, unbound Sec17 washed out, then SM (Vps33 2.5 µM or Sly1 10 µM) for 60 min at 30°C; Coomassie; both purified.
Test [4] shares this target. As to the kind of experiment: pull-down; across temperatures (4°, 24°, 30°C and a finer range), 60 min; immobilised SNARE complex or GST-Sed5FL (500 nM); Sly1 6-12 µM, Vps33 1-1.5 µM, Sec17 2-20 µM; Coomassie or SYPRO Ruby with standard curves; both purified.
In test [5] the target is T2, Vam3-GST (cytoplasmic domain of Vam3, aa1-264) (S. cerevisiae) (UniProt Q12241).
T2 sequence: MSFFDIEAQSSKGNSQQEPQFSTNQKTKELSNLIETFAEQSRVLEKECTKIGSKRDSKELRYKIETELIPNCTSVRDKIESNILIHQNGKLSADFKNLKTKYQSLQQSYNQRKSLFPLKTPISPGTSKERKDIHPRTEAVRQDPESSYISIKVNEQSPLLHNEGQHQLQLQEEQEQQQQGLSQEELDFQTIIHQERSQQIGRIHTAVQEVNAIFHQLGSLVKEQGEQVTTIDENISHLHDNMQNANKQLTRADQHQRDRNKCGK
Description: condition: only at the low concentrations of free SNAREs liberated by disassembly, 30 min; pull-down; re-assembly without added SNAREs: SNARE complexes (500 nM) disassembled 30 min at 30°C by Sec17, Sec18 and ATP, quenched with 10 mM EDTA, further 30 min at 30°C, with or without SM; both purified.

Test [6] addresses T3, Sec17–Golgi SNARE complex (Sec17 bound to the Golgi SNARE complex on GST-Sed5 SNARE domain) (S. cerevisiae) (UniProt Q01590+P25385+P22804+P22214+P32602). As to the kind of experiment: pull-down; complexes formed 60 min at 30°C on immobilised Golgi SNARE complex (Sec17 20 µM, Sly1 10 µM), unbound washed out, resin kept a further 60 min in SM Assay Buffer at 4° or 30°C, washed again; Coomassie; both purified.

The target in test [7] is T3, Sec17–Golgi SNARE complex (Sec17 bound to the Golgi SNARE complex on GST-Sed5 SNARE domain) (S. cerevisiae). Description: pull-down; SNARE complex (500 nM) immobilised through its GST-tagged Qa-SNARE; Sec17 (20 µM), SM (Vps33 2.5 µM or Sly1 10 µM) or both, 1 hr at 30°C in SM Assay Buffer (some with 1 mM ATP, 2 mM MgCl2); washed three times, glutathione elution, SDS-PAGE, Coomassie; both purified.

Test [8] has the same target. Description: pull-down; Sec17 pre-bound to immobilised SNARE complex 60 min at 30°C, unbound Sec17 washed out, then SM (Vps33 2.5 µM or Sly1 10 µM) for 60 min at 30°C; Coomassie; both purified.
Test [9] has the same target. As to the kind of experiment: pull-down; across temperatures (4°, 24°, 30°C and a finer range), 60 min; immobilised SNARE complex or GST-Sed5FL (500 nM); Sly1 6-12 µM, Vps33 1-1.5 µM, Sec17 2-20 µM; Coomassie or SYPRO Ruby with standard curves; both purified.
The target of test [10] is T4, Sly1 (full length, aa1-667) (S. cerevisiae) (UniProt P22213).
T4 sequence: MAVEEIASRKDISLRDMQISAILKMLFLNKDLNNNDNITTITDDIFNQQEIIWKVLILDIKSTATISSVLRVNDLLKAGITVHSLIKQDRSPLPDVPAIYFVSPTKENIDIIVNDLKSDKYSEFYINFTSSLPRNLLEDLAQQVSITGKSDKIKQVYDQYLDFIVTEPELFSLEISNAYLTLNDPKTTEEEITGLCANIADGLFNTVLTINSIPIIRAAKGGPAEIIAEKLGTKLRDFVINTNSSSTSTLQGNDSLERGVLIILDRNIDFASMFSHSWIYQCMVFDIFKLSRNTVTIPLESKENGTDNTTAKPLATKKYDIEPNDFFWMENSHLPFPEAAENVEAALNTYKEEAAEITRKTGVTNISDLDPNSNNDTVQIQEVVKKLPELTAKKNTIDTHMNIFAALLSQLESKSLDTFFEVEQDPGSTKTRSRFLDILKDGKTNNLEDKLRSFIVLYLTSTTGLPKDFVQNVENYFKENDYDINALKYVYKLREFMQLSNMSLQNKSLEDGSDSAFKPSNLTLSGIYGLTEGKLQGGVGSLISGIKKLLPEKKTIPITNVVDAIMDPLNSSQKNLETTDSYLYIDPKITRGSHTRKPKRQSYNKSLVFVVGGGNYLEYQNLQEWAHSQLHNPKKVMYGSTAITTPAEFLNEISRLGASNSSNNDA
As to the kind of experiment: pull-down; full cytoplasmic domain of Sed5 (GST-Sed5FL, 500 nM) immobilised without assembled SNARE complex; Sly1 (10 µM) and Sec17; 30°C; Coomassie; both purified.

Test [11] deals with binary complex of Sly1 and GST-Sed5 full cytoplasmic domain (S. cerevisiae) (UniProt Q01590+P22213). The description is as above.

These are yes or no findings as the source states them, for the method shown. Some binding calls cover weakened binding; strength is not graded here. For some assays here: Where a sequence is shown, tags or fusion partners need not be part of it.

As to “His6-Sec22 (soluble domain, aa1-188) (from UniProt P22214 1-188) (domain or fragment)”, in test [1], the binding entry is listed as “no binding”.

Turning to Vps33 (from UniProt P20795 1-691), the binding entry in test [2], in [3] and in [4] was “binds” each time.

Turning to “His7-MBP-Vti1 (soluble domain, aa1-194) (from UniProt Q04338 1-194) (domain or fragment)”, in test [5], the binding result was “no binding”.

B1: Sly1 (full length, aa1-667) (natural protein, S. cerevisiae, UniProt P22213 1-666, looked up)
chain: MAVEEIASRKDISLRDMQISAILKMLFLNKDLNNNDNITTITDDIFNQQEIIWKVLILDIKSTATISSVLRVNDLLKAGITVHSLIKQDRSPLPDVPAIYFVSPTKENIDIIVNDLKSDKYSEFYINFTSSLPRNLLEDLAQQVSITGKSDKIKQVYDQYLDFIVTEPELFSLEISNAYLTLNDPKTTEEEITGLCANIADGLFNTVLTINSIPIIRAAKGGPAEIIAEKLGTKLRDFVINTNSSSTSTLQGNDSLERGVLIILDRNIDFASMFSHSWIYQCMVFDIFKLSRNTVTIPLESKENGTDNTTAKPLATKKYDIEPNDFFWMENSHLPFPEAAENVEAALNTYKEEAAEITRKTGVTNISDLDPNSNNDTVQIQEVVKKLPELTAKKNTIDTHMNIFAALLSQLESKSLDTFFEVEQDPGSTKTRSRFLDILKDGKTNNLEDKLRSFIVLYLTSTTGLPKDFVQNVENYFKENDYDINALKYVYKLREFMQLSNMSLQNKSLEDGSDSAFKPSNLTLSGIYGLTEGKLQGGVGSLISGIKKLLPEKKTIPITNVVDAIMDPLNSSQKNLETTDSYLYIDPKITRGSHTRKPKRQSYNKSLVFVVGGGNYLEYQNLQEWAHSQLHNPKKVMYGSTAITTPAEFLNEISRLGASNSSNNDA
notes: Sly1, Golgi SM protein, S. cerevisiae, printed as full-length aa1-667; construct His6-(tev)-Sly1; as I recall the UniProt entry has 666 residues; the printed 667 may count the stop codon; also called His6-Sly1; Golgi SM protein; source: E. coli (pRIL plasmid), purified (Ni-NTA)
In the case of B1, the binding result in [6], in test [7], in test [8] and in test [9] was “binds” in each case.

B2: His6-Nyv1 (soluble domain, aa1-231) (domain or fragment, S. cerevisiae, UniProt Q12255 1-231, looked up)
chain: MKRFNVSYVEVIKNGETISSCFQPFQKNENYGTITSANEQITPVIFHNLIMDMVLPKVVPIKGNKVTKMSMNLIDGFDCFYSTDDHDPKTVYVCFTLVDMPKILPIRILSGLQEYESNATNELLSSHVGQILDSFHEELVEYRNQTLNSSGNGQSSNGNGQNTISDIGDATEDQIKDVIQIMNDNIDKFLERQERVSLLVDKTSQLNSSSNKFRRKAVNIKEIMWWQKVKN
notes: Nyv1, vacuole R-SNARE, S. cerevisiae, soluble domain aa1-231; also called vacuole R-SNARE; source: E. coli (pRIL plasmid), purified (Ni-NTA); not shown: His6, N-terminal, kept
B2: the binding entry in test [5] is recorded as “no binding”.

B3: Sec17 (natural protein, S. cerevisiae, UniProt P32602 1-292, looked up)
chain: MSDPVELLKRAEKKGVPSSGFMKLFSGSDSYKFEEAADLCVQAATIYRLRKELNLAGDSFLKAADYQKKAGNEDEAGNTYVEAYKCFKSGGNSVNAVDSLENAIQIFTHRGQFRRGANFKFELGEILENDLHDYAKAIDCYELAGEWYAQDQSVALSNKCFIKCADLKALDGQYIEASDIYSKLIKSSMGNRLSQWSLKDYFLKKGLCQLAATDAVAAARTLQEGQSEDPNFADSRESNFLKSLIDAVNEGDSEQLSEHCKEFDNFMRLDKWKITILNKIKESIQQQEDDLL
notes: Sec17, S. cerevisiae; construct CBD-(intein)-Sec17 in pTYB12; an intein tag is as a rule cut off during purification; also called α-SNAP homolog; Sec18 adapter; source: E. coli (pRIL plasmid), purified
For B3, the binding entry in test [10] and in [11] was “no binding” in each case.

B4: His7-MBP-Bet1 (soluble domain, aa1-123) (domain or fragment, S. cerevisiae, UniProt P22804 1-123, looked up)
chain: MSSRFAGGNAYQRDTGRTQLFGPADGSNSLDDNVSSALGSTDKLDYSQSTLASLESQSEEQMGAMGQRIKALKSLSLKMGDEIRGSNQTIDQLGDTFHNTSVKLKRTFGNMMEMARRSGISIK
notes: Bet1, Golgi Qc-SNARE, S. cerevisiae, soluble domain aa1-123; also called Golgi Qc-SNARE; source: E. coli (pRIL plasmid), purified (Ni-NTA); not shown: His7, N-terminal, kept; MBP, N-terminal, kept
Take B4: the binding entry in [1] is listed as “no binding”.

B5: His6-GFP-Vam7 SNARE domain (aa190-316) (domain or fragment, S. cerevisiae, UniProt P32912 190-316, looked up)
chain: PSTEVTRRAALLRSLLKECDDIGTANIAQDRGRLLGVATSDNSSTTEVQGRTNNDLQQGQMQMVRDQEQELVALHRIIQAQRGLALEMNEELQTQNELLTALEDDVDNTGRRLQIANKKARHFNNSA
notes: Vam7, vacuole Qc-SNARE, S. cerevisiae, SNARE domain aa190-316; also called vacuole Qc-SNARE; source: E. coli (pRIL plasmid), purified (Ni-NTA); not shown: His6, N-terminal, kept; GFP (A207K), N-terminal, kept
Regarding B5, the binding entry in [5] is listed as “no binding”.
